# Results as given in PubChem BioAssay (NCATS).
# Inconclusive results, whose numbers are uncertain, are shown with a selection of clear calls. Potencies of inconclusive entries are doubtful fits and often do not repeat. Calls of active or inactive are those of the source. Calls come from the whole dose curve; as a rule, active = well fitted curve in the direction sought with a large enough effect; inconclusive = small, poorly fitted or top-dose-only effect, or another doubt; inactive = no such curve, though single readings can be large; an effect the other way counts as inactive or inconclusive.
# Key:
# [1] = target: Rap guanine nucleotide exchange factor 3 (Homo sapiens) (UniProt O95398); assay: Confirmatory qHTS for antagonist of cAMP-regulated guanine nucleotide exchange factor 3 (EPAC1) (AID 1645880); conditions: EPAC1 Rap1B-BODIPY-GDP exchange, fluorescence; activity, negative = inhibition: at 115 µM (top of the series); note: nearly all actives have a fitted effect of over 55% in size;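 for activity, negative = inhibition: plate controls were DMSO only for no effect and full effect of the ATA control for full effect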
# UniProt O95398, sequence (O95398 whole entry, looked up): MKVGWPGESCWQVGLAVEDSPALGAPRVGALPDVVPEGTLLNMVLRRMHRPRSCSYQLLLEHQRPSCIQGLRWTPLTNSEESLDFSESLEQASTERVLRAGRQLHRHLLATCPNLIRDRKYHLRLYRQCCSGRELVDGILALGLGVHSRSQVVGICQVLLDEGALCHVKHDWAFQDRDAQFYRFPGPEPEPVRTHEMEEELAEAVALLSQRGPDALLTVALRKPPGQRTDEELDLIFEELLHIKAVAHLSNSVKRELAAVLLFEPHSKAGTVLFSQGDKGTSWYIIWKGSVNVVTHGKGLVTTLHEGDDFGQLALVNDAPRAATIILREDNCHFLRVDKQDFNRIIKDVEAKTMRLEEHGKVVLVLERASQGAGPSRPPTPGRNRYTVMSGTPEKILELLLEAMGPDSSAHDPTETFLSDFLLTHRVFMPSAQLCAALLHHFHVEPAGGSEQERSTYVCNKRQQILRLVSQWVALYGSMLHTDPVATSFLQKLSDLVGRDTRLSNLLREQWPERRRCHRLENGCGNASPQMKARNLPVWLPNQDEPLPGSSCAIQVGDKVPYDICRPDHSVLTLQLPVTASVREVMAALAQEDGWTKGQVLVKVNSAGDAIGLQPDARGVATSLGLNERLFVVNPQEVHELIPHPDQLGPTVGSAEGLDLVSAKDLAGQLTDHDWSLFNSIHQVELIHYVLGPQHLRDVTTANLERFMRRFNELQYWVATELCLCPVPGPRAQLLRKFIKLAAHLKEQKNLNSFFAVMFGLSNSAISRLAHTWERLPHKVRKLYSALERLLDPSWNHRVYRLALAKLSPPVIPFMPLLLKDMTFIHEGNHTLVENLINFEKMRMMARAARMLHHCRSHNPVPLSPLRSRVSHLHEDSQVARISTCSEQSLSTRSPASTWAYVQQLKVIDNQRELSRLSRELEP
# Outline: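 Released BODIPY-GDP fluoresces less than Rap1-bound BODIPY-GDP; the signal is followed at 480/540 nm at 5-min intervals over 30 min, after 5 min at room temperature. Reactions contain 100 nM EPAC1, 250 nM RAP1B-BODIPY-GDP and 50 uM GDP; results are normalized to ATA and DMSO.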
# [2] = target: Rap guanine nucleotide exchange factor 3 (Homo sapiens) (UniProt O95398); assay: Counterscreen qHTS for agonist of cAMP-regulated guanine nucleotide exchange factor 3 (EPAC1) (AID 1645889); conditions: EPAC1 Rap1B-BODIPY-GDP exchange, fluorescence; activation: at 154 µM (top of the series) unless noted; note: nearly all actives have a fitted effect of over 40% in size; for activation: % of control where 0% means no effect
# Outline: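 Rap1B–BODIPY-GDP (250 nM) with 50 uM GDP; compounds pin-transferred to 9.74 nM–152 uM final (activator) or from 7.32 nM upwards (inhibitor). Fluorescence Ex/Em 480/540 nm read at 5 and 30 min, then after adding cAMP or buffer, at room temperature.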
# Potency is the fitted concentration of half-maximal effect; tags give direction and shape of the fitted curve.
Structure (SMILES),Potency [1],Potency [2],activation [2]
Nc1ncnc2c1C(c1ccccc1)c1c(ccc3ccccc13)O2 (centres undefined),"inconclusive: 8.49 µM [inhibitor, partial curve, poor fit]","inconclusive: 7.94 µM [activator, partial curve, poor fit]",–
COc1ccc(N2CCN(C3CCCCC3NS(=O)(=O)c3ccccc3)CC2)cc1 (centres undefined),inactive,"inconclusive: 14.1 µM [activator, partial curve, poor fit]",–
O=C(c1ccc(O)c(Br)c1)c1cc(Br)ccc1O,"inconclusive: 39.8 µM [inhibitor, partial curve, poor fit]",–,inactive: 26.8% [at 30.8 µM]
CSc1ccccc1C(=O)N(C)C(c1ccccc1)c1ccccc1,"inconclusive: 60.1 µM [inhibitor, partial curve]","inconclusive: 0.0708 µM [activator, partial curve, poor fit]",–
CCCCC1=C(C(=O)OCC)C(C(=O)OCC)Oc2ccccc21 (centres undefined),inactive,inactive,–
Cn1cccc1/C=C1\CCC/C(=C\c2cccn2C)C1=O,active: 75.7 µM,active: 39.8 µM,–
CC(=NNC(=O)c1ccccc1N)c1ccccc1O,active: 2.51 µM,"inconclusive: 0.0251 µM [activator, full curve, poor fit]",–
O=C(Nc1ccc(Cl)cc1)Nc1ccccc1NS(=O)(=O)c1cccs1,"inconclusive: 63.1 µM [inhibitor, partial curve, poor fit]",–,inactive: 27.1% [at 30.8 µM]
O=C1Cc2ccccc2C(=O)N1CCc1ccccc1,"inconclusive: 95.3 µM [inhibitor, partial curve]","inconclusive: 7.94 µM [activator, partial curve, poor fit]",–
CCCCc1ccc(NS(=O)(=O)c2cc3c4c(c2)CC(=O)N4CCC3)cc1,"inconclusive: 84.9 µM [inhibitor, partial curve]",–,inconclusive: 43.2% [activator]
Cc1ccc(-c2nc(-c3cc4cccc(OCc5ccc(F)cc5)c4oc3=O)no2)cc1,"inconclusive: 95.3 µM [inhibitor, partial curve, poor fit]",–,inconclusive: 29.1% [activator]
COc1ccc2ccc(C(C)(C(C)=O)C(=O)OC(C)C)cc2c1 (centres undefined),"inconclusive: 15.8 µM [inhibitor, full curve, poor fit]",–,inconclusive: 42.7% [activator] [at 30.8 µM]
O=C(O)CCn1cc(/C=C\C(=O)c2ccc(Cl)cc2)c(-c2cccc(Br)c2)n1,"inconclusive: 11.2 µM [inhibitor, full curve]",–,inactive: 15.3% [at 30.8 µM]
Cc1cc(C)cc(N(CC(=O)Nc2ccc(C(F)(F)F)cc2)S(=O)(=O)c2c(C)[nH]c(=O)[nH]c2=O)c1,"inconclusive: 75.7 µM [inhibitor, partial curve]",inactive,–
N#CC1(NC(=O)COC(=O)c2nc(Cl)c(Cl)c(N)c2Cl)CCCCC1,inactive,–,inconclusive: 24.8% [activator]
Cc1ccc(N(Cc2cccs2)C(=O)c2ccccc2Cl)cc1,inactive,"inconclusive: 44.7 µM [activator, partial curve]",–
O=C(CN1C(=O)/C(=C2/SC(=S)N(CCS(=O)(=O)O)C2=O)c2ccccc21)Nc1cccc(C(F)(F)F)c1,"inconclusive: 44.7 µM [inhibitor, partial curve]","inconclusive: 0.0178 µM [activator, full curve]",–
COC(=O)c1ccc2nc(-c3ccco3)c(Cc3ccccc3)n2c1,"inconclusive: 35.5 µM [inhibitor, partial curve]",–,inactive: 10% [at 30.8 µM]
Cc1onc(-c2c(F)cccc2Cl)c1C(=O)OCc1cnc(Cl)s1,"inconclusive: 30.1 µM [inhibitor, partial curve, poor fit]",inactive,–
O=C(Nc1ccc(S(=O)(=O)Nc2nccs2)cc1)c1cc(-c2ccccn2)nc2ccccc12,"inconclusive: 50.1 µM [inhibitor, partial curve]","inconclusive: 0.158 µM [activator, full curve, poor fit]",–
O=C(Nc1ccccc1)c1ccccc1Br,inactive,"inconclusive: 0.0251 µM [activator, full curve, poor fit]",–
CC1(C(=O)NS(=O)(=O)c2cccc(Cl)c2)CCN1C(=O)C1(c2ccc(Cl)cc2)CC1 (centres undefined),active: 31.6 µM,"inconclusive: 0.562 µM [activator, full curve, poor fit]",–
